In patent US20250121087A1, “ANTIBODY-DRUG CONJUGATES COMPRISING ANTI-B7-H3 ANTIBODIES” (priority 2020, published 2025):

Key:
cynomolgus monkey B7-H3 = experiment: Biacore (SPR) binding kinetics, cynomolgus monkey B7-H3; conditions: analyte Cyno B7-H3, antibody as immobilized ligand
Procedure: (§1) The binding affinity of the purified anti-B7-H3 monoclonal antibodies was determined by BLI-based OCTET or SPR-based Biacore. Further the binding kinetics of the antibodies binding to human, cynomolgus monkey and mouse B7-H3 antigen are shown in Table 37.
(§2) A Biacore 8K (GE Life science) instrument was used to measure the binding kinetics about several B7-H3 variants (analyte) binding to various mAbs (ligands). Antibodies were captured onto the immobilized anti-human Fc antibody (GE Life science). Anti-Fc antibodies were immobilized to approximately 7,000 RU on CM5 sensor chip using a standard amine coupling method on both active cell and reference cell. For binding kinetic measurements, the HBS-EP+ was used for running buffer (10 mM Hepes, pH7.4, 150 mM NaCl, 3 mM EDTA, 0.05% polysorbate20). Anti-B7-H3 antibodies were diluted to 0.5 ug/mL in running buffer and injected for 110 s on active cells only. After capturing ligand, various B7-H3 antigens were analyzed for 120 s and the dissociation was monitored for 600 s at a flow rate of 30 ul/min. […] Kinetic information was calculated by fitting data to a 1:1 binding model using Biacore Insight Evaluation software (GE Life Science) to determine ka (association constant), kd (dissociation constant), and KD (equilibrium dissociation constant).

mouse B7-H3 = target: T1, mouse B7-H3 (Mus musculus, UniProt Q8VE98); experiment: Biacore (SPR) binding kinetics, mouse B7-H3; conditions: analyte Mouse B7-H3, antibody as immobilized ligand
T1 construct: purchased Sino biological Inc
T1 sequence (Q8VE98 29-316): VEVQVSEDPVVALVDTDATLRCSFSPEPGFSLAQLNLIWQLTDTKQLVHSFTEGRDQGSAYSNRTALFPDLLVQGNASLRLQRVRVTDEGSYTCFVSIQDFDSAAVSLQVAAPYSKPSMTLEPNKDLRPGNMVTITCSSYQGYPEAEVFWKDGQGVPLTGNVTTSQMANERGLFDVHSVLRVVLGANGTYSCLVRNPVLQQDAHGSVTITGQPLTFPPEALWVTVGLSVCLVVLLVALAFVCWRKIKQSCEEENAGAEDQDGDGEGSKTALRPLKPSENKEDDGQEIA
Procedure: as §1, §2

human 2Ig B7-H3 = target: T2, human 2Ig B7-H3 (Homo sapiens, UniProt Q5ZPR3); experiment: Biacore (SPR) binding kinetics, human 2Ig B7-H3; conditions: analyte Human 2IgB7-H3, antibody as immobilized ligand
T2 construct: purchased Acrobiosystems
T2 sequence (Q5ZPR3 29-316 isoform Q5ZPR3-2 limits assumed): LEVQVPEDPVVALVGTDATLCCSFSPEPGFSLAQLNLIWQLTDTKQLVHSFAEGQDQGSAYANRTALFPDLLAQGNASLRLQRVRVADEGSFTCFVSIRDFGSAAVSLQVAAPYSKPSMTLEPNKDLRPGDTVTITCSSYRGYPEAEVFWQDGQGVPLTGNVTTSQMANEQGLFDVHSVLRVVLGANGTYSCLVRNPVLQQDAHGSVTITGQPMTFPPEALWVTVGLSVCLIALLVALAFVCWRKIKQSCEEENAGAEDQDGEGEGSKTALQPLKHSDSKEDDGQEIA
Procedure: as §1, §2

human 4Ig B7-H3 = target: T3, human 4Ig B7-H3 (Homo sapiens, UniProt Q5ZPR3); experiment: Biacore (SPR) binding kinetics, human 4Ig B7-H3; conditions: analyte Human 4IgB7-H3, antibody as immobilized ligand
T3 construct: purchased Y-Biologics Inc
T3 sequence (Q5ZPR3 29-534): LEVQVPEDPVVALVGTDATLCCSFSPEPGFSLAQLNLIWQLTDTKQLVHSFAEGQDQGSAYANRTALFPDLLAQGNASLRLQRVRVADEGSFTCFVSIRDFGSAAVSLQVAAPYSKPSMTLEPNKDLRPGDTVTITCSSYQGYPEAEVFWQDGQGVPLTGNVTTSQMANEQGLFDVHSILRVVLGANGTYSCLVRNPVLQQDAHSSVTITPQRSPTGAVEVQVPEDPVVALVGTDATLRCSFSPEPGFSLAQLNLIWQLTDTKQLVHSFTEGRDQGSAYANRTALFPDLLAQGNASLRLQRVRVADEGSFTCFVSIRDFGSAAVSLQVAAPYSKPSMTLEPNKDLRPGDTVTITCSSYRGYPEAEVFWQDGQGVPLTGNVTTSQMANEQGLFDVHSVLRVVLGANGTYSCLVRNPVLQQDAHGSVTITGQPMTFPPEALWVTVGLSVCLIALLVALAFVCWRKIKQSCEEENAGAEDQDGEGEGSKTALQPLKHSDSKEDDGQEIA
Procedure: as §1, §2

B1: AB2.1 (antibody)
heavy: QVQLVESGAEVKKPGASVKLSCKASGYTFSSYWMHWVRQAPGQRLEWMGEINPGNGHTNYNEKFKSRVTITVDKSASTAYMELSSLRSEDTAVYYCVADPRRPKVPTALFVYWGQGTLVTVSSCSTKGPSVFPLAPSSKSTSGGTAALGCLVKDYFPEPVTVSWNSGALTSGVHTFPAVLQSSGLYSLSSVVTVPSSSLGTQTYICNVNHKPSNTKVDKKV[here human IgG1 Fc without letters]
light: DIQMTQSPSSVSASVGDRVTISCRASQGIGTWLAWYQQKPGKAPRLLIYAASSLDSGVPSRFSASGSGTDFTLTISSLQPEDFATYYCQQAINFPITFGQGTRLEIKRSVAAPSVFIFPPSDEQLKSGTASVVCLLNNFYPREAKVQWKVDNALQSGNSQESVTEQDSKDSTYSLSSTLTLSKADYEKHKVYACEVTHQGLSSPVTKSFNRGEC
Ka (cynomolgus monkey B7-H3): 480000 M⁻¹ s⁻¹
Kd (cynomolgus monkey B7-H3): 0.000504 s⁻¹
Ka (mouse B7-H3): 420000 M⁻¹ s⁻¹
Kd (mouse B7-H3): 0.0178 s⁻¹
Ka (human 2Ig B7-H3): 217000 M⁻¹ s⁻¹
Kd (human 2Ig B7-H3): 0.00469 s⁻¹
Ka (human 4Ig B7-H3): 442000 M⁻¹ s⁻¹
Kd (human 4Ig B7-H3): 0.00047 s⁻¹
